In patent publication US12703706B2, “Anthelmintic compounds comprising a thienopyridine structure” (Intervet Inc., priority 2020, dated 2026):

Experiments:
[1] = test system: Ascaridia galli (intestinal roundworm of chicken), larval stage 3; assay: In vitro assay Ascaridia galli L3, minimum effective concentration; conditions: read-out: MEC against Ascaridia galli L3, minimum effective concentration, microscopic examination, 20 larvae per well
Excerpt: In Vitro Assay: Ascaridia galli and Oesophagostumum dentatum
Ascaridia galli (intestinal roundworm of chicken), larval stage 3 (“L3”); and Oesophagostumum dentatum (nodular worm of swine), larval stages 3 and 4 (respectively “L3” and “L4”) where suspended in a nutrient medium and distributed to 96 well plates with 20 larvae per well. The wells were spiked DMSO solutions of the compounds with declining concentration.

[2] = target: Caenorhabditis elegans slo-1a (Caenorhabditis elegans, UniProt Q95V25); assay: Agonistic activity at C. elegans Slo-1a, FLIPR membrane potential in CHO K1 cells; conditions: EC50 value, CHO K1 cells stably transfected
Excerpt: In Vitro Assay: Agonistic Activity at C. elegans Slo-1a
A CHO K1 cell line stably transfected with the Caenorhabditis elegans slo-1a (accession no Y51A2D.19a) was established.
The complete measurement takes 150 s.

UniProt Q95V25, sequence (Q95V25 whole entry): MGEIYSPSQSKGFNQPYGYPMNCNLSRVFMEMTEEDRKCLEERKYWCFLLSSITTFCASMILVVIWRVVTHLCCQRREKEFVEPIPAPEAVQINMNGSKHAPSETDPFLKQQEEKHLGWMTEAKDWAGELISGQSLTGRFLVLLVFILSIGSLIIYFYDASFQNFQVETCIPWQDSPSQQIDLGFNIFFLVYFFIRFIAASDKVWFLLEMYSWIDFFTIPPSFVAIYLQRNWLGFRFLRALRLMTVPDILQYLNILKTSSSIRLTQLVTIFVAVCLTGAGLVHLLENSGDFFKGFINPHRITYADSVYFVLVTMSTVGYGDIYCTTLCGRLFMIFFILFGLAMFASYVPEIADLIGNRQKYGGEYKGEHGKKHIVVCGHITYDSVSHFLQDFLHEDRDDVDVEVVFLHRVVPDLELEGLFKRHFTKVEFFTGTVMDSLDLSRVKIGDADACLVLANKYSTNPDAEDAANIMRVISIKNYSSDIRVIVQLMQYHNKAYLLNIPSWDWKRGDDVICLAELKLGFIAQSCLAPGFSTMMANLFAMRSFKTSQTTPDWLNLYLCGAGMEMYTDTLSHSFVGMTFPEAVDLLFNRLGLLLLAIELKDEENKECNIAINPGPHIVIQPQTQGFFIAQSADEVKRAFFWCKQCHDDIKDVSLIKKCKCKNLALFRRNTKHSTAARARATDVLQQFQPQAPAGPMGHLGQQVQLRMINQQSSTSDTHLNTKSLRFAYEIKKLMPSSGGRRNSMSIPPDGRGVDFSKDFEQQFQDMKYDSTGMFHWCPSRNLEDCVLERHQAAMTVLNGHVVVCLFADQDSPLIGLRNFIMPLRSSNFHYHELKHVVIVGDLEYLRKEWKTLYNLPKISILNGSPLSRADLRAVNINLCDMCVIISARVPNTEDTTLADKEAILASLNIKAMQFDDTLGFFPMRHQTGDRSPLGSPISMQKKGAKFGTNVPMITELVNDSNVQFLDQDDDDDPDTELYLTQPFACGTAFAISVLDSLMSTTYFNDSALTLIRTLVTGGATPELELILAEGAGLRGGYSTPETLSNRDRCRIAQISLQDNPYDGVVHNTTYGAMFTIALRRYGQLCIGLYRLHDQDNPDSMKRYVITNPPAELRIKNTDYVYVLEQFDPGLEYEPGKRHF

SMILES	minimal effective concentration [1] [µM]	EC50 [2] [nM]
C[C@H](NC(=O)c1cnc2c(-c3cccc(Cl)c3Cl)csc2c1N(C)C)c1ccccc1 [Compound 11]	≤ 50	< 1000
CN1CCN(c2c(C(=O)N[C@H]3CCOc4ccccc43)cnc3c(-c4cccc(Cl)c4Cl)csc23)CC1 [Compound 17]	≤ 50	–
CN(C)c1c(C(=O)N[C@H]2CCc3ccccc32)cnc2c(-c3cc(F)cc(F)c3F)csc12 [Compound 25]	≤ 50	< 1000
CN1CCN(c2c(C(=O)N[C@H]3CCc4ccccc43)cnc3c(-c4cc(Cl)cc(Cl)c4)csc23)CC1 [Compound 29]	≤ 50	–
Cc1sc2c(N(C)C)c(C(=O)N[C@H]3CCCc4ccccc43)cnc2c1-c1cccc(Cl)c1Cl [Compound 35]	≤ 50	< 1000
Cc1sc2c(N(C)C)c(C(=O)Nc3cccc4ccccc34)cnc2c1-c1cccc(Cl)c1Cl [Compound 37]	≤ 50	–
Cc1sc2c(N(C)C)c(C(=O)N[C@H]3CCCc4ccccc43)cnc2c1-c1cc(Cl)cc(Cl)c1 [Compound 38]	≤ 50	< 1000
O=C(N[C@H]1CCOc2ccccc21)c1cnc2c(-c3cccc(C(F)(F)F)c3)csc2c1N1CCOCC1 [Compound 42]	≤ 50	< 1000
CN(C)c1c(C(=O)N[C@H]2CCOc3ccccc32)cnc2c(-c3cccc(C(F)(F)F)c3)csc12 [Compound 47]	≤ 50	< 10000
COc1cccc(-c2csc3c(N(C)C)c(C(=O)N[C@H]4CCOc5ccccc54)cnc23)c1 [Compound 48]	≤ 50	< 1000
Cc1sc2c(N3CC(F)(F)C3)c(C(=O)N[C@H]3CCc4ccccc43)cnc2c1-c1cc(Cl)cc(Cl)c1 [Compound 60]	≤ 50	< 1000
Cc1sc2c(N3CC(F)C3)c(C(=O)N[C@H]3CCCc4ccccc43)cnc2c1-c1cccc(Cl)c1Cl [Compound 61]	≤ 50	< 1000
Cc1sc2c(N3CC(F)C3)c(C(=O)N[C@H]3CCCc4ccccc43)cnc2c1-c1cc(Cl)cc(Cl)c1 [Compound 64]	≤ 50	< 1000
Cc1sc2c(N3CCOCC3)c(C(=O)N[C@H]3CCc4ccccc43)cnc2c1-c1cc(Cl)cc(Cl)c1 [Compound 69]	≤ 50	< 10000
CN(C)c1c(C(=O)NC2COc3ccccc32)cnc2c(-c3cccc(Cl)c3Cl)csc12 (stereo not shown) [Compound 78]	≤ 50	< 10000
O=C(NC1COc2ccccc21)c1cnc2c(-c3cc(Cl)cc(Cl)c3)csc2c1N1CCOCC1 (stereo not shown) [Compound 81]	≤ 50	–
O=C(N[C@H]1CCOc2ccccc21)c1cnc2c(-c3cc(F)cc(F)c3)csc2c1N1CCC1 [Compound 83]	≤ 50	–
O=C(N[C@H]1CCOc2ccccc21)c1cnc2c(-c3cc(F)cc(F)c3)csc2c1NC1CC1 [Compound 86]	≤ 50	–

SMILES	minimal effective concentration [1] [µM]	EC50 [2] [nM]
O=C(N[C@H]1CCOc2ccccc21)c1cnc2c(-c3cccc(F)c3F)csc2c1NC1CC1 [Compound 87]	≤ 50	–
O=C(N[C@H]1CCOc2ccccc21)c1cnc2c(-c3cc(F)cc(F)c3F)csc2c1NC1CC1 [Compound 88]	≤ 50	–
O=C(N[C@H]1CCOc2ccccc21)c1cnc2c(-c3cccc(C(F)(F)F)c3)csc2c1NC1CC1 [Compound 89]	≤ 50	–
O=C(N[C@H]1CCOc2ccccc21)c1cnc2c(-c3cc(F)cc(F)c3F)csc2c1NCCO [Compound 94]	≤ 50	< 10000
CN(CCO)c1c(C(=O)N[C@H]2CCOc3ccccc32)cnc2c(-c3cc(F)cc(F)c3F)csc12 [Compound 95]	≤ 50	< 1000
CN(C)c1c(C(=O)N[C@H]2CCOc3ccccc32)cnc2c(-c3cccc(OC(F)(F)F)c3)csc12 [Compound 97]	≤ 50	< 1000
CN(C)c1cccc(-c2csc3c(N(C)C)c(C(=O)N[C@H]4CCOc5ccccc54)cnc23)c1 [Compound 98]	≤ 50	< 1000
Cc1sc2c(N(C)C)c(C(=O)N[C@H]3CCOc4ccccc43)cnc2c1-c1cc(F)cc(F)c1 [Compound 103]	–	< 1000
Cc1sc2c(N(C)C)c(C(=O)N[C@H]3CCOc4ccccc43)cnc2c1-c1cccc(C(F)(F)F)c1 [Compound 104]	–	< 1000
Cc1sc2c(N(C)C)c(C(=O)N[C@H]3CCOc4ccccc43)cnc2c1-c1cccc(OC(F)(F)F)c1 [Compound 105]	–	< 1000
Cc1sc2c(N3CCOCC3)c(C(=O)N[C@H]3CCOc4ccccc43)cnc2c1-c1cc(F)cc(F)c1F [Compound 106]	–	< 1000
Cc1sc2c(N3CCOCC3)c(C(=O)N[C@H]3CCOc4ccccc43)cnc2c1-c1cc(F)cc(F)c1 [Compound 107]	–	< 1000
Cc1sc2c(N3CCOCC3)c(C(=O)N[C@H]3CCOc4ccccc43)cnc2c1-c1cccc(C(F)(F)F)c1 [Compound 108]	–	< 1000
Cc1sc2c(N3CCOCC3)c(C(=O)N[C@H]3CCOc4ccccc43)cnc2c1-c1cccc(OC(F)(F)F)c1 [Compound 109]	–	< 10000
Cc1sc2c(N3CCOCC3)c(C(=O)N[C@H]3CCc4ccccc43)cnc2c1-c1cc(F)cc(F)c1F [Compound 110]	–	< 1000
Cc1sc2c(N3CCOCC3)c(C(=O)N[C@H]3CCc4ccccc43)cnc2c1-c1cc(F)cc(F)c1 [Compound 111]	–	< 1000
Cc1sc2c(N3CCOCC3)c(C(=O)N[C@H]3CCc4ccccc43)cnc2c1-c1cccc(C(F)(F)F)c1 [Compound 112]	–	< 1000
Cc1sc2c(N3CCOCC3)c(C(=O)N[C@H]3CCc4ccccc43)cnc2c1-c1cccc(OC(F)(F)F)c1 [Compound 113]	–	< 1000
